{
  "source": "the supplement of paper PMC4967469",
  "key": {"AICAR": {"compound": "NC(=O)c1ncn([C@@H]2O[C@H](CO)[C@@H](O)[C@H]2O)c1N [AICAR]", "assay": "Viability of human cancer cell lines after 72 h of drug (GDSC screen)", "conditions": "top dose 2000 µM; top dose inferred", "description": "(§1)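 Human cancer cell lines in 384-well plates, medium with 10% serum, drug for 72 h over a 256-fold dose range (nine 2-fold or five 4-fold steps up to the top dose). Adherent lines were fixed and stained with the nucleic acid dye Syto60, suspension lines read with resazurin; signal relative to control wells, capped at 0 and 100%. One two-parameter sigmoid per drug and line, fitted in a mixed model over all curves with the slope shared within a line.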"}, "AKT inhibitor VIII": {"compound": "O=c1[nH]c2ccccc2n1C1CCN(Cc2ccc(-c3[nH]c4cc5ncnc5cc4nc3-c3ccccc3)cc2)CC1 [AKT inhibitor VIII]", "assay": "Viability of human cancer cell lines after 72 h of drug (GDSC screen)", "conditions": "top dose inferred", "description": "as §1"}, "[1]": {"conditions": "top dose 2.56 µM, screen: GDSC drug entry 171"}, "[2]": {"conditions": "top dose 10.24 µM, screen: GDSC drug entry 228"}},
  "note": "By IC50 is meant the dose at which the fit gives 50% viability; fits outside the tested doses are given as limits. The AUC spans the tested range (256-fold, ending at the top dose) of the same fit: 1 means no effect, lower means more sensitive. Where the top dose is marked as inferred, it is not printed in the source and was worked back from the curve model. For some of these results: Where an entry number is given, a second screen of the drug exists; the two often differ.",
  "data": [
    {"cell line": "D-247MG (glioma, adherent)", "values": [
      {"measurement": "AUC", "setting": "AICAR", "result": 0.932},
      {"measurement": "IC50", "setting": "AICAR", "result": "> 2000", "unit": "µM"},
      {"measurement": "AUC", "setting": "AKT inhibitor VIII; [1]", "result": 0.98},
      {"measurement": "IC50", "setting": "AKT inhibitor VIII; [1]", "result": "> 2.56", "unit": "µM"},
      {"measurement": "AUC", "setting": "AKT inhibitor VIII; [2]", "result": 0.972},
      {"measurement": "IC50", "setting": "AKT inhibitor VIII; [2]", "result": "> 10.2", "unit": "µM"}
    ]},
    {"cell line": "U-698-M (B-cell leukaemia, suspension)", "values": [
      {"measurement": "AUC", "setting": "AICAR", "result": 0.722},
      {"measurement": "IC50", "setting": "AICAR", "result": 534, "unit": "µM"},
      {"measurement": "AUC", "setting": "AKT inhibitor VIII; [1]", "result": 0.968},
      {"measurement": "IC50", "setting": "AKT inhibitor VIII; [1]", "result": "> 2.56", "unit": "µM"},
      {"measurement": "AUC", "setting": "AKT inhibitor VIII; [2]", "result": 0.884},
      {"measurement": "IC50", "setting": "AKT inhibitor VIII; [2]", "result": "> 10.2", "unit": "µM"}
    ]},
    {"cell line": "NB10 (neuroblastoma, adherent)", "values": [
      {"measurement": "AUC", "setting": "AICAR", "result": 0.968},
      {"measurement": "IC50", "setting": "AICAR", "result": "> 2000", "unit": "µM"},
      {"measurement": "AUC", "setting": "AKT inhibitor VIII; [1]", "result": 0.988},
      {"measurement": "IC50", "setting": "AKT inhibitor VIII; [1]", "result": "> 2.56", "unit": "µM"},
      {"measurement": "AUC", "setting": "AKT inhibitor VIII; [2]", "result": 0.977},
      {"measurement": "IC50", "setting": "AKT inhibitor VIII; [2]", "result": "> 10.2", "unit": "µM"}
    ]},
    {"cell line": "HCC-44 (lung adenocarcinoma, adherent)", "values": [
      {"measurement": "AUC", "setting": "AICAR", "result": 0.869},
      {"measurement": "IC50", "setting": "AICAR", "result": 1770, "unit": "µM"},
      {"measurement": "AUC", "setting": "AKT inhibitor VIII; [1]", "result": 0.904},
      {"measurement": "IC50", "setting": "AKT inhibitor VIII; [1]", "result": "> 2.56", "unit": "µM"},
      {"measurement": "AUC", "setting": "AKT inhibitor VIII; [2]", "result": 0.832},
      {"measurement": "IC50", "setting": "AKT inhibitor VIII; [2]", "result": 6.35, "unit": "µM"}
    ]},
    {"cell line": "NUGC-4 (stomach, adherent)", "values": [
      {"measurement": "AUC", "setting": "AICAR", "result": 0.899},
      {"measurement": "IC50", "setting": "AICAR", "result": "> 2000", "unit": "µM"},
      {"measurement": "AUC", "setting": "AKT inhibitor VIII; [1]", "result": 0.976},
      {"measurement": "IC50", "setting": "AKT inhibitor VIII; [1]", "result": "> 2.56", "unit": "µM"},
      {"measurement": "AUC", "setting": "AKT inhibitor VIII; [2]", "result": 0.97},
      {"measurement": "IC50", "setting": "AKT inhibitor VIII; [2]", "result": "> 10.2", "unit": "µM"}
    ]},
    {"cell line": "H4 (glioma, adherent)", "values": [
      {"measurement": "AUC", "setting": "AICAR", "result": 0.968},
      {"measurement": "IC50", "setting": "AICAR", "result": "> 2000", "unit": "µM"},
      {"measurement": "AUC", "setting": "AKT inhibitor VIII; [1]", "result": 0.972},
      {"measurement": "IC50", "setting": "AKT inhibitor VIII; [1]", "result": "> 2.56", "unit": "µM"},
      {"measurement": "AUC", "setting": "AKT inhibitor VIII; [2]", "result": 0.933},
      {"measurement": "IC50", "setting": "AKT inhibitor VIII; [2]", "result": "> 10.2", "unit": "µM"}
    ]},
    {"cell line": "NCI-H727 (lung carcinoid, adherent)", "values": [
      {"measurement": "AUC", "setting": "AICAR", "result": 0.928},
      {"measurement": "IC50", "setting": "AICAR", "result": "> 2000", "unit": "µM"},
      {"measurement": "AUC", "setting": "AKT inhibitor VIII; [1]", "result": 0.932},
      {"measurement": "IC50", "setting": "AKT inhibitor VIII; [1]", "result": "> 2.56", "unit": "µM"},
      {"measurement": "AUC", "setting": "AKT inhibitor VIII; [2]", "result": 0.91},
      {"measurement": "IC50", "setting": "AKT inhibitor VIII; [2]", "result": "> 10.2", "unit": "µM"}
    ]},
    {"cell line": "AU565 (breast, adherent)", "values": [
      {"measurement": "AUC", "setting": "AICAR", "result": 0.637},
      {"measurement": "IC50", "setting": "AICAR", "result": 312, "unit": "µM"},
      {"measurement": "AUC", "setting": "AKT inhibitor VIII; [1]", "result": 0.768},
      {"measurement": "IC50", "setting": "AKT inhibitor VIII; [1]", "result": 1.06, "unit": "µM"},
      {"measurement": "AUC", "setting": "AKT inhibitor VIII; [2]", "result": 0.748},
      {"measurement": "IC50", "setting": "AKT inhibitor VIII; [2]", "result": 3.63, "unit": "µM"}
    ]},
    {"cell line": "TE-4 (oesophagus, adherent)", "values": [
      {"measurement": "AUC", "setting": "AICAR", "result": 0.9},
      {"measurement": "IC50", "setting": "AICAR", "result": "> 2000", "unit": "µM"},
      {"measurement": "AUC", "setting": "AKT inhibitor VIII; [2]", "result": 0.904},
      {"measurement": "IC50", "setting": "AKT inhibitor VIII; [2]", "result": "> 10.2", "unit": "µM"}
    ]},
    {"cell line": "ME-180 (cervix, adherent)", "values": [
      {"measurement": "AUC", "setting": "AICAR", "result": 0.666},
      {"measurement": "IC50", "setting": "AICAR", "result": 371, "unit": "µM"},
      {"measurement": "AUC", "setting": "AKT inhibitor VIII; [1]", "result": 0.856},
      {"measurement": "IC50", "setting": "AKT inhibitor VIII; [1]", "result": 2.21, "unit": "µM"},
      {"measurement": "AUC", "setting": "AKT inhibitor VIII; [2]", "result": 0.663},
      {"measurement": "IC50", "setting": "AKT inhibitor VIII; [2]", "result": 1.85, "unit": "µM"}
    ]},
    {"cell line": "LOU-NH91 (lung squamous cell carcinoma, adherent)", "values": [
      {"measurement": "AUC", "setting": "AICAR", "result": 0.879},
      {"measurement": "IC50", "setting": "AICAR", "result": "> 2000", "unit": "µM"},
      {"measurement": "AUC", "setting": "AKT inhibitor VIII; [1]", "result": 0.986},
      {"measurement": "IC50", "setting": "AKT inhibitor VIII; [1]", "result": "> 2.56", "unit": "µM"},
      {"measurement": "AUC", "setting": "AKT inhibitor VIII; [2]", "result": 0.973},
      {"measurement": "IC50", "setting": "AKT inhibitor VIII; [2]", "result": "> 10.2", "unit": "µM"}
    ]},
    {"cell line": "SJSA-1 (bone, adherent)", "values": [
      {"measurement": "AUC", "setting": "AICAR", "result": 0.818},
      {"measurement": "IC50", "setting": "AICAR", "result": 1320, "unit": "µM"},
      {"measurement": "AUC", "setting": "AKT inhibitor VIII; [1]", "result": 0.949},
      {"measurement": "IC50", "setting": "AKT inhibitor VIII; [1]", "result": "> 2.56", "unit": "µM"},
      {"measurement": "AUC", "setting": "AKT inhibitor VIII; [2]", "result": 0.95},
      {"measurement": "IC50", "setting": "AKT inhibitor VIII; [2]", "result": "> 10.2", "unit": "µM"}
    ]},
    {"cell line": "NKM-1 (acute myeloid leukaemia, suspension)", "values": [
      {"measurement": "AUC", "setting": "AICAR", "result": 0.55},
      {"measurement": "IC50", "setting": "AICAR", "result": 172, "unit": "µM"},
      {"measurement": "AUC", "setting": "AKT inhibitor VIII; [1]", "result": 0.884},
      {"measurement": "IC50", "setting": "AKT inhibitor VIII; [1]", "result": "> 2.56", "unit": "µM"},
      {"measurement": "AUC", "setting": "AKT inhibitor VIII; [2]", "result": 0.464},
      {"measurement": "IC50", "setting": "AKT inhibitor VIII; [2]", "result": 0.508, "unit": "µM"}
    ]},
    {"cell line": "PF-382 (T-cell lymphoblastic leukaemia, suspension)", "values": [
      {"measurement": "AUC", "setting": "AICAR", "result": 0.909},
      {"measurement": "IC50", "setting": "AICAR", "result": "> 2000", "unit": "µM"},
      {"measurement": "AUC", "setting": "AKT inhibitor VIII; [1]", "result": 0.958},
      {"measurement": "IC50", "setting": "AKT inhibitor VIII; [1]", "result": "> 2.56", "unit": "µM"},
      {"measurement": "AUC", "setting": "AKT inhibitor VIII; [2]", "result": 0.429},
      {"measurement": "IC50", "setting": "AKT inhibitor VIII; [2]", "result": 0.42, "unit": "µM"}
    ]}
  ]
}
